# Results as given in PubChem BioAssay AID1159614 (National Center for Advancing Translational Sciences (NCATS), 2016).
# Out of some 45,000 compounds screened, about 65 (0.1%) were called active. The call rests on the fitted dose curve; in most records, active means well fitted activation curve with a large enough effect; inconclusive means small, poorly fitted or top-dose-only effect; inactive means no such curve, though single readings can be large or run the other way. The list shows a part of the results.
# Target: Galactocerebrosidase (Homo sapiens) (UniProt P54803)
# Sequence of UniProt P54803 (P54803 whole entry, looked up): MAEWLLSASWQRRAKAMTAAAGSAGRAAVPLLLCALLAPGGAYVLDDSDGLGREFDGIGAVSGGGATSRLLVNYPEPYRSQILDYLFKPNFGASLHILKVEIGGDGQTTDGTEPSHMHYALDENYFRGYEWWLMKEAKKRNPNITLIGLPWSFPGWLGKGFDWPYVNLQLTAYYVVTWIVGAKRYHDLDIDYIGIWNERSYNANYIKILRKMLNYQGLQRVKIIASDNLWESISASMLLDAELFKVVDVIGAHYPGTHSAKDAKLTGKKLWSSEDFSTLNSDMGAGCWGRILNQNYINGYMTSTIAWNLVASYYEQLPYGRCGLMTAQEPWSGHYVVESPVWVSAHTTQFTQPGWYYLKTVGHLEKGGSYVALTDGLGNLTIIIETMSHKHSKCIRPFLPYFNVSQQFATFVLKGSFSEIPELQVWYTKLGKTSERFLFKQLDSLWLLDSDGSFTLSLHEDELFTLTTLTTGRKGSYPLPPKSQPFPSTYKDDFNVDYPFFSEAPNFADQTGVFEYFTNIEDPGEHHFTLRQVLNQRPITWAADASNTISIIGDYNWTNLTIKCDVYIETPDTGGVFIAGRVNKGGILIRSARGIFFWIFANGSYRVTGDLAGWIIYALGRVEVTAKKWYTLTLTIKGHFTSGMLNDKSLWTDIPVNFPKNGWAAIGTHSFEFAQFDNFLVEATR
# Assay: A Novel Cell-Based Assay to Identify Small Molecules for B -Galactocerebrosidase; further: nearly all actives have a fitted effect of over 65% in size; on activation: 0% is about no effect
# Details: 145M-Twi-hGALC-G270D cells (Twitcher mouse brain line with human GALC G270D), HMU-beta-Gal fluorescence, 48 h; series mostly up to 57.5 µM; activation: at the top concentration
# Method in brief: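 Mutant human GALC (G270D), stably expressed in a Twitcher mouse brain cell line lacking endogenous GALC, is measured in live-treated cells via 6-hexadecanoylamino-4-methylumbelliferyl-β-galactoside hydrolysis (0.1 mM final, pH 5.2) with fluorescent detection.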
# Potency means the concentration at half of the fitted maximal effect.
Compound,activation,Potency
CC(C)(C)C1CCc2c(sc(NC(=O)c3cccc(Cl)c3)c2C(N)=O)C1 (stereo not drawn),inactive: -17.5%,
Cc1c(C(=O)OC2CCCC2)[nH]c2c1C(=O)CC(c1ccc(C(C)(C)C)cc1)C2 (stereo not drawn),inactive: -16%,
COc1cccc(CNC(=O)CN2C(=O)CSc3ccc(S(=O)(=O)N(C)C)cc32)c1,inactive: -19.9%,
Cc1ccc(-c2nc3sccn3c2Nc2ccccc2C)cc1,inactive: -14.5%,
CC1CCN(C(=O)c2cnn(-c3ccc(Cl)cc3)c2C2CCN(C(=O)OC(C)(C)C)CC2)CC1,inactive: -14.1%,
Cc1cccc(N2CCN(C(=O)c3nn(C)c4c3CSc3ccccc3-4)CC2C)c1 (stereo not drawn),inactive: -10.1%,
CSCCC(NS(=O)(=O)c1ccc2c(c1)oc(=O)n2C)C(=O)N1CCN(c2cc(Cl)ccc2C)CC1 (stereo not drawn),inactive: -18.9%,
Cc1cc2c(cc3c(SCc4ccc(Cl)cc4)nnc(C)n32)o1,inactive: -9.28%,
CCN(CCCNC(=O)c1cc2cc3cc(OC)ccc3nc2s1)c1cccc(C)c1,inactive: -17.1%,
COc1ccc(NC(=O)CSc2oc(-c3ccc(C)cc3)nc2S(=O)(=O)c2ccc(C)cc2)c(OC)c1,inactive: -13.1%,
CCC(=O)Oc1c(Sc2ccc(Cl)cc2)c(C)nn1C(C)(C)C,inactive: -28.3%,
Cc1ccc2nc(-c3ccncc3)c(Nc3ccccc3C)n2c1,inactive: -11.7%,
CC1=C(c2ccc(C)cc2)S(=O)(=O)N=C1N1CCN(c2ccccc2)CC1,inactive: -14.4%,
CCC(C)NC(=O)c1cn(CC)c2ccc(S(=O)(=O)N3CCCCC3)cc2c1=O (stereo not drawn),inactive: -15.1%,
Cc1ccc(CSC2=Nc3ccccc3C3=NC(CC(=O)NC4CCCCC4)C(=O)N23)c(C)c1 (stereo not drawn),inactive: -7.51%,
CCc1cccc(NC(=O)CNS(=O)(=O)c2ccc3nc(C)sc3c2)c1,inactive: -13.3%,
COc1ccc2c(c1)c1c(c(=O)n(-c3cccc(C)c3)c(=O)n1CC(=O)Nc1c(C)cc(C)cc1C)n2C,inactive: -3.64%,
Cc1cc(C)cc(NC(=O)CN2C(=O)COc3ccc(S(=O)(=O)Nc4ccccc4)cc32)c1,inactive: -11.6%,
Cc1cn(C)c(CC(=O)NCc2ccc(F)cc2)c1C(=O)O,inactive: -5.17%,
CCOC(=O)c1ccccc1NC(=O)CSc1nc2ncccc2o1,inactive: -5.51%,
O=C(Nc1ccc(N2CCC(N3CCCCC3)CC2)c(C(=O)O)c1)c1ccccc1,inactive: 13.1%,
O=C(COc1ccccc1)N(Cc1cccnc1)c1nc2ccc(Cl)cc2s1,inactive: -9.57%,
CNS(=O)(=O)c1cn(CC(=O)N2CCN(c3ccc(OC)cc3)CC2)cc1S(=O)(=O)NC,inactive: -9.09%,
Cc1ccc(NS(=O)(=O)c2ccc3c4c(cccc24)C(=O)N3)c(C)c1,inactive: -9.74%,

Compound,activation,Potency
CCn1cc(C(=O)NCc2ccccc2)c(=O)c2cc(S(=O)(=O)N3CCCCC3)ccc21,inactive: -14.7%,
Cc1cc(Nc2cccc(C(F)(F)F)c2)ncn1,inactive: -10.4%,
Cc1cccc(-c2nc3c4ccccc4nc(NCc4ccccc4Cl)n3n2)c1,inactive: -7.02%,
CN(Cc1ccccc1)S(=O)(=O)c1ccc(F)c(C(=O)Nc2ccccc2C(F)(F)F)c1,inactive: -3.29%,
Cc1ccc(C(NC(=O)Cc2cccs2)C(=O)Nc2ccc(C(C)C)cc2)cc1 (stereo not drawn),inactive: -12.5%,
Nc1c(C(=O)Nc2cccc(Cl)c2)sc2nc3c(cc12)CN(Cc1ccccc1)CC3,inactive: -19%,
CCOCCCn1c(=N)c(S(=O)(=O)c2ccc(C)cc2)cc2c(=O)n3ccccc3nc21,inactive: 7.03%,
CCOC(=O)c1c(NC(=O)C(C)Sc2cn(CCNC(=O)c3ccc(OC)c(OC)c3)c3ccccc23)sc2c1CCC2 (stereo not drawn),inactive: -7.14%,
COc1ccc(CC(=O)NC2CC(=O)N(c3ccc4c(c3)OCCO4)C2)cc1 (stereo not drawn),inactive: -11.5%,
CC(C)NC(=O)c1ccc(Cn2c(=O)c3cccn3c3cccnc32)cc1,inactive: -4.4%,
CCN1CCN(Cc2c(O)ccc3c(=O)c(Oc4ccccc4Cl)c(C(F)(F)F)oc23)CC1,inactive: -23.2%,
CCOC(=O)c1c(C)oc2nc(C)nc(NCc3ccc(C)cc3)c12,inactive: -15.1%,
COCCCNc1nc2c(-c3ccccc3)nnn2c2ccccc12,inactive: -5.89%,
CO[C@]1(NC(=O)CSC(F)F)C(=O)N2C(C(=O)O)=C(CSc3nnnn3CCO)CO[C@H]21,inactive: -5.83%,
CCOCCCn1c(=N)c(C(=O)NCc2ccco2)cc2c(=O)n3ccccc3nc21,,active: 22.4 µM
COc1ccc2nc3sc(C(=O)Nc4cc(Cl)c(OC)cc4OC)cc3cc2c1,inactive: -15%,
O=C(CSc1nncn2c1cc1sccc12)Nc1ccccc1C(F)(F)F,inactive: -12.1%,
O=C(NCCC1=CCCCC1)c1ccc2c(c1)N(Cc1ccc(F)cc1)C(=O)c1ccccc1S2(=O)=O,inactive: -10.2%,
COc1ccc(NC(=O)C2(c3cccs3)CCOCC2)cc1Cl,inactive: -5.16%,
CCOC(=O)c1c(C)sc(-c2c(-c3ccc4c(c3)OCCO4)[nH]c3c2c(=O)[nH]c(=O)n3C)c1O,inactive: -19.5%,
COC(=O)c1ccccc1NC(=O)c1cc2nc(-c3ccccc3)cc(-c3ccccc3)n2n1,inactive: -13.2%,
Cc1ccccc1C(=O)NCC(c1cccnc1)N1CCc2ccccc21 (stereo not drawn),inactive: -13.8%,
COc1cccc(-n2c(=O)c3sc4ccccc4c3n(CC(=O)Nc3ccc(F)cc3F)c2=O)c1,inactive: -4.62%,
Cc1ccc(Cl)cc1N1CCN(CCCNc2ncnc3onc(-c4ccc(F)cc4)c23)CC1,inactive: -1.26%,

Compound,activation,Potency
COc1ccc(N2CC3=C(C2=O)C(c2ccc(Br)cc2)NC(=O)N3C)cc1 (stereo not drawn),inactive: -4.6%,
Cc1cc(Nc2sc(C(=O)c3ccc(F)cc3)c(N)c2C(=O)Nc2ccc(F)cc2)ccc1Cl,inactive: 0.663%,
COc1cc(NC(=O)CSc2nc(C)c(C(=O)Nc3ccccc3)c(-c3ccc(OC)c(OC)c3)c2C#N)c(OC)cc1Cl,inactive: -16.7%,
O=C1CC(=O)Nc2cc(S(=O)(=O)N3CCOc4ccccc43)ccc2N1,inactive: -7.13%,
CC(C)CN(CCCNC(=O)CN1C(=O)COc2ccc(S(=O)(=O)N3CCCCCC3)cc21)CC(C)C,inactive: -12.2%,
COc1cccc(N2CCN(C(=O)c3c(C)oc4ncnc(N5CCCCC5)c34)CC2)c1,inactive: -5.33%,
Cc1ccc(-c2nnc(Nc3ccc(O)cc3)c3ccccc23)cc1S(=O)(=O)NCc1nc2ccccc2[nH]1,inactive: -14.4%,
COC(=O)CCCCC(CCSS/C(CCO)=C(\C)N(C=O)Cc1cnc(C)nc1N)SC(C)=O (stereo not drawn),inactive: -17%,
CCc1ccc(OCC(=O)N(Cc2ccco2)Cc2ccco2)cc1,inactive: -9.12%,
CCCOc1ccc(OC(=O)c2c(-c3ccccc3Cl)noc2C)cc1,inactive: -16.5%,
COc1ccc(NC(=O)Cn2c(=O)n(-c3ccc(CC(=O)NCC4CCCO4)cc3)c(=O)c3ccccc32)c(OC)c1 (stereo not drawn),inactive: 0.265%,
COc1ccc(NC(=O)c2cc3c([nH]c2=O)CC(c2ccccc2)CC3=O)cc1 (stereo not drawn),inactive: -25.2%,
COc1ccc(-c2nn3c(-c4ccc(C)cc4)nnc3c3ccccc23)cc1,inactive: -12.3%,
COc1cccc(CN2C(=O)c3ccccc3Sc3ccc(C(=O)NCCc4ccc(Cl)cc4)cc32)c1,inactive: -19.4%,
COc1ccc(NC(=O)c2ccc3c(c2)c(C)c(C)n3Cc2ccc(F)cc2)c(OC)c1,inactive: -12.9%,
COc1ccc(C2=Nn3c(nc4sc(C(=O)Nc5cccc(C)c5)c(C)c4c3=O)SC2)cc1,inactive: -4.84%,
COc1ccccc1N1CCN(c2nc3ccc(C)cc3nc2-n2nc(C)cc2C)CC1,inactive: -16.1%,
CN(C(=O)c1ccc2c(c1)N(Cc1ccccc1F)C(=O)c1ccccc1S2)C1CCCCC1,inactive: -14.4%,
Cc1cccc(NCc2nnc3n2CCCCC3)c1C,inactive: -18.8%,
CCCN1CCN(CCCNC(=O)c2ccc3c(c2)sc2nc(-c4ccc(C)cc4)cn23)CC1,inactive: -12%,
Cc1cccc(-c2noc(-c3ccc(NCC4CCCO4)c([N+](=O)[O-])c3)n2)c1 (stereo not drawn),inactive: 1.42%,
CCOC(=O)c1c(C)n(-c2ccccc2)c2ccc(OC(=O)c3ccc(OCC)c(OCC)c3)cc12,inactive: -4.48%,
O=C(C1CCN(c2nc3ccccc3[nH]2)CC1)N1CCN(c2ccccc2)CC1,inactive: -11.1%,
COc1ccccc1NC(=O)CCn1nc(-c2ccccc2)c2ccccc2c1=O,inactive: -0.897%,

Compound,activation,Potency
Cc1cc(C)cc(OCc2cc(=O)n3cc(C)sc3n2)c1,inactive: -10.4%,
Cc1ccc(-c2nnc(Nc3ccc(Cl)cc3)c3ccccc23)cc1S(=O)(=O)N1CCOCC1,inactive: -8.75%,
CN(C)S(=O)(=O)c1ccc2c(c1)N(CC(=O)N1CCCCC1)CCS2,inactive: -10.2%,
Cn1cc(S(=O)(=O)c2ccccc2)c(=O)c2cc(F)c(N3CCN(c4ccc(F)cc4)CC3)cc21,inactive: -10.5%,
O=C(Nc1c(C(=O)N2CCC(N3CCCCC3)CC2)oc2ccccc12)c1c(F)cccc1F,inactive: -17.5%,
Cc1ccc(-n2ncc3c(Nc4cccc(C)c4)ncnc32)cc1,inactive: 2.24%,
COc1cccc(-n2c(SCC(=O)N3CCCCC3)nc3c([nH]c4ccccc43)c2=O)c1,inactive: -2.19%,
CCOc1ccc(CCNC(=O)C(C)n2nc(C)n3c(cc4occc43)c2=O)cc1OCC (stereo not drawn),inactive: -9.65%,
Cc1ccc(Cl)cc1N1CCN(C(=O)c2cn(C)c3ccc(S(=O)(=O)N(C)C4CCCCC4)cc3c2=O)CC1,inactive: -15.1%,
COc1ccc(CNC(=O)CCc2nc3cccnc3n2Cc2ccccc2)cc1,inactive: 3.58%,
O=C(Cn1cnc(S(=O)(=O)N2CCCC2)c1)Nc1ccccc1,inactive: -2.98%,
Cc1ccc(NC(=O)Cn2c(=O)n(CCC(=O)NCCc3ccccc3)c(=O)c3ccccc32)cc1,inactive: 1.22%,
Cc1cccc(N2CCN(C(=O)c3c(C)oc4nc(C)nc(N5CCCC5)c34)CC2C)c1 (stereo not drawn),inactive: -0.686%,
CC(=O)Nc1ccc(NC(=O)C(Cc2ccccc2)N2Cc3ccccc3C2=O)cc1 (stereo not drawn),inactive: -18.3%,
CC(=O)c1cccc(NC(=O)c2noc3c2CSc2ccccc2-3)c1,inactive: -6.56%,
COc1ccc(NC(=O)c2c(N)c(C(=O)c3ccc(C)cc3)n3ccccc23)cc1OC,inactive: -19.4%,
Cc1ccc(C)c(CN2C(=O)c3ccccc3Sc3ccc(C(=O)NCc4cccs4)cc32)c1,inactive: -1.03%,
O=C(CCc1ccccc1)NCCc1csc(-c2cccc(F)c2)n1,inactive: -15.5%,
COc1ccc(NC(=O)c2ccc3c(c2)c(C)c(C)n3Cc2ccc(F)cc2)cc1,inactive: -11.5%,
Cc1cc(C)c2c(-n3cccc3)c(C(=O)NCCCN3CCCCC3)sc2n1,inactive: -12%,
CCN1CCN(Cc2nc3cc(NC(=O)c4ccccc4[N+](=O)[O-])ccc3n2CC)CC1,inactive: -13.7%,
